Experimental data: patent publication US20260217779A1 (Chugai, published 2026)

Target: T1, mouse CXCR3 (mCXCR3) on Ba/F3 transfectant cells (mouse, UniProt O88410 1-367)
T1 sequence (looked up): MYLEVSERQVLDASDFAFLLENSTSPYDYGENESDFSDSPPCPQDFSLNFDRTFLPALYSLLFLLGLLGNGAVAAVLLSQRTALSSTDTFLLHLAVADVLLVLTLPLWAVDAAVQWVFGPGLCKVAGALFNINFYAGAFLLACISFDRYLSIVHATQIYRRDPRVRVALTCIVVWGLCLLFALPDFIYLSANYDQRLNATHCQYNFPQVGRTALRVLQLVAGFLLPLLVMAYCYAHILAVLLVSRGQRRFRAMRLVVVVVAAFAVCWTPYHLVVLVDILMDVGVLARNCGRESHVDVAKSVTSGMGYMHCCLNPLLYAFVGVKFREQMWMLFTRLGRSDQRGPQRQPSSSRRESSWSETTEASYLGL
Assay: cell-based or functional assay

B1: hCXCL10R75A (ligand)
chain: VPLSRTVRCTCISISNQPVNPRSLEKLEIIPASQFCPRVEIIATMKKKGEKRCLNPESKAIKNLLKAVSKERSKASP
Question: For B1, which “Luminescence value at 1 nM, DPPIV -” value is on record?
Answer: 384000

Question: What about the “Luminescence value at 2 nM, DPPIV -” value of the same binder?
Answer: 909000

Question: And the “Luminescence value at 5 nM, DPPIV -” value?
Answer: 2.36e+06

Question: And the “Luminescence value at 9 nM, DPPIV -” value?
Answer: 3.93e+06

Question: And the “Luminescence value at 19 nM, DPPIV -” value?
Answer: 5.87e+06

Question: What about the “Luminescence value at 38 nM, DPPIV -” value of the same binder?
Answer: 1.01e+07

Question: And the “Luminescence value at 75 nM, DPPIV -” value?
Answer: 1.33e+07

Question: And the “Luminescence value at 150 nM, DPPIV -” value?
Answer: 9.68e+06

Question: What about the “Luminescence value at 300 nM, DPPIV -” value of the same binder?
Answer: 3.83e+06

Question: What about the “Luminescence value at 600 nM, DPPIV -” value of the same binder?
Answer: 1.13e+06

B2: DPPIV-treated hCXCL10R75A (ligand)
chain: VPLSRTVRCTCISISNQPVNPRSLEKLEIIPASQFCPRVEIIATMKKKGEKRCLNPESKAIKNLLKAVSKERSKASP
Question: How did the “Luminescence value at 1 nM, DPPIV +” value turn out when B2 was run?
Answer: 78200

Question: And the “Luminescence value at 2 nM, DPPIV +” value?
Answer: 73800

Question: What about the “Luminescence value at 5 nM, DPPIV +” value of the same binder?
Answer: 74800

Question: And the “Luminescence value at 9 nM, DPPIV +” value?
Answer: 84000

Question: And the “Luminescence value at 19 nM, DPPIV +” value?
Answer: 82800

Question: And the “Luminescence value at 38 nM, DPPIV +” value?
Answer: 107000

Question: And the “Luminescence value at 75 nM, DPPIV +” value?
Answer: 410000

Question: And the “Luminescence value at 150 nM, DPPIV +” value?
Answer: 1.7e+06

Question: What about the “Luminescence value at 300 nM, DPPIV +” value of the same binder?
Answer: 3.72e+06

Question: What about the “Luminescence value at 600 nM, DPPIV +” value of the same binder?
Answer: 5.45e+06
